The supplement of paper PMC4604168 (melanoma cell lines)
Some of the results follow. Most values come without repeats; read them as rough.

tested on: MEL-HO; assay: cell count relative to DMSO control; melanoma cells; higher = more viable cells; conditions: library dose: low library concentration; 72 h
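Note: cell number obtained by counting DAPI-stained nuclei in high-throughput microscope images with image analysis software, screen run in 1,536-well plates.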

**Q.** With `N#CC[C@H](C1CCCC1)n1cc(-c2ncnc3[nH]ccc23)cn1` [ruxolitinib] + O=C(Nc1ccccc1)c1cc([N+](=O)[O-])ccc1Cl [GW9662] (first compound 1 µM, partner dose 2 µM) as the compound, how does the cell count read?
**A.** Its cell count is 88.2%.

**Q.** How did the cell count turn out when `N#CC[C@H](C1CCCC1)n1cc(-c2ncnc3[nH]ccc23)cn1` [ruxolitinib] + CC(=O)O[C@@]12CO[C@@H]1C[C@H](O)[C@@]1(C)C(=O)[C@H](O)C3=C(C)[C@@H](OC(=O)[C@H](O)[C@@H](NC(=O)OC(C)(C)C)c4ccccc4)C[C@@](O)([C@@H](OC(=O)c4ccccc4)[C@H]21)C3(C)C [Docetaxel] (first compound 1 µM, partner dose 0.0001 µM) was run?
**A.** Its cell count is 71.4%.

**Q.** For `N#CC[C@H](C1CCCC1)n1cc(-c2ncnc3[nH]ccc23)cn1` [ruxolitinib] + COc1ccc(Cl)c(Nc2nc3ccccc3nc2NS(=O)(=O)c2cccc(NC(=O)C(C)(C)N)c2)c1 [XL147] (first compound 1 µM, partner dose 0.8 µM), which cell count is on record?
**A.** The cell count was 91.6%.

**Q.** For `N#CC[C@H](C1CCCC1)n1cc(-c2ncnc3[nH]ccc23)cn1` [ruxolitinib] + Cc1cn(-c2cc(NC(=O)c3ccc(C)c(Nc4nccc(-c5cccnc5)n4)c3)cc(C(F)(F)F)c2)cn1 [nilotinib] (first compound 1 µM, partner dose 0.2 µM), which cell count is on record?
**A.** The cell count was 98.4%.

**Q.** With `CC[C@]1(O)C[C@H]2CN(CCc3c([nH]c4ccccc34)[C@@](C(=O)OC)(c3cc4c(cc3OC)N(C=O)[C@H]3[C@@](O)(C(=O)OC)[C@H](OC(C)=O)[C@]5(CC)C=CCN6CC[C@]43[C@@H]65)C2)C1` [vincristine] + C[C@@H](Oc1cc(-c2cnn(C3CCNCC3)c2)cnc1N)c1c(Cl)ccc(F)c1Cl [Crizotinib] (first compound 0.0001 µM, partner dose 0.2 µM) as the compound, how does the cell count read?
**A.** The cell count was 109%.

**Q.** How did the cell count turn out when `N#CC[C@H](C1CCCC1)n1cc(-c2ncnc3[nH]ccc23)cn1` [ruxolitinib] + COc1ccc(C2=N[C@@H](c3ccc(Cl)cc3)[C@@H](c3ccc(Cl)cc3)N2C(=O)N2CCNC(=O)C2)c(OC(C)C)c1 [Nutlin-3] (first compound 1 µM, partner dose 0.1 µM) was run?
**A.** The cell count was 93.3%.

**Q.** `N#CC[C@H](C1CCCC1)n1cc(-c2ncnc3[nH]ccc23)cn1` [ruxolitinib] + Cn1sc(=O)n(Cc2ccccc2)c1=O [TDZD-8] (first compound 1 µM, partner dose 0.4 µM) was tested. Which cell count did it give?
**A.** The cell count was 96%.

**Q.** `CC[C@]1(O)C[C@H]2CN(CCc3c([nH]c4ccccc34)[C@@](C(=O)OC)(c3cc4c(cc3OC)N(C=O)[C@H]3[C@@](O)(C(=O)OC)[C@H](OC(C)=O)[C@]5(CC)C=CCN6CC[C@]43[C@@H]65)C2)C1` [vincristine] + O=C(O)[C@@H]1[O][Sb](=[O])([O][Sb]2(=[O])[O][C@H]([C@H](O)CO)[C@H](O)[C@H](C(=O)O)[O]2)[O][C@H]([C@H](O)CO)[C@@H]1O [stibogluconate] (first compound 0.0001 µM, partner dose 2 µM) was tested. Which cell count did it give?
**A.** Its cell count is 107%.

**Q.** With `N#CC[C@H](C1CCCC1)n1cc(-c2ncnc3[nH]ccc23)cn1` [ruxolitinib] + Nc1cccc2c1CN(C1CCC(=O)NC1=O)C2=O [lenalidomide] (first compound 1 µM, partner dose 1 µM) as the compound, how does the cell count read?
**A.** The cell count was 102%.

**Q.** For `CC[C@]1(O)C[C@H]2CN(CCc3c([nH]c4ccccc34)[C@@](C(=O)OC)(c3cc4c(cc3OC)N(C=O)[C@H]3[C@@](O)(C(=O)OC)[C@H](OC(C)=O)[C@]5(CC)C=CCN6CC[C@]43[C@@H]65)C2)C1` [vincristine] + C#Cc1cccc(Nc2ncnc3cc(OCCOC)c(OCCOC)cc23)c1 [erlotinib] (first compound 0.0001 µM, partner dose 0.8 µM), which cell count is on record?
**A.** Its cell count is 91.6%.

**Q.** Which cell count does the source give for `CC[C@]1(O)C[C@H]2CN(CCc3c([nH]c4ccccc34)[C@@](C(=O)OC)(c3cc4c(cc3OC)N(C=O)[C@H]3[C@@](O)(C(=O)OC)[C@H](OC(C)=O)[C@]5(CC)C=CCN6CC[C@]43[C@@H]65)C2)C1` [vincristine] + Nc1cccc2c1CN(C1CCC(=O)NC1=O)C2=O [lenalidomide] (first compound 0.0001 µM, partner dose 1 µM) here?
**A.** Its cell count is 96.8%.

**Q.** For `N#CC[C@H](C1CCCC1)n1cc(-c2ncnc3[nH]ccc23)cn1` [ruxolitinib] + NC1(c2ccc(-c3nc4ccn5c(=O)[nH]nc5c4cc3-c3ccccc3)cc2)CCC1 [MK2206] (first compound 1 µM, partner dose 0.4 µM), which cell count is on record?
**A.** The cell count was 86.4%.

**Q.** For `N#CC[C@H](C1CCCC1)n1cc(-c2ncnc3[nH]ccc23)cn1` [ruxolitinib] + C#Cc1cccc(Nc2ncnc3cc(OCCOC)c(OCCOC)cc23)c1 [erlotinib] (first compound 1 µM, partner dose 0.8 µM), which cell count is on record?
**A.** The cell count was 93.3%.

**Q.** For `Cc1cc(Nc2cc(N3CCN(C)CC3)nc(Sc3ccc(NC(=O)C4CC4)cc3)n2)n[nH]1` [Tozasertib] + O=c1cc(-c2cccc3c2Sc2ccccc2S3)oc(N2CCOCC2)c1 [KU55933] (first compound 0.006 µM, partner dose 1 µM), which cell count is on record?
**A.** The cell count was 85.8%.

**Q.** For `N#CC[C@H](C1CCCC1)n1cc(-c2ncnc3[nH]ccc23)cn1` [ruxolitinib] + COCC[n+]1c2c(n(Cc3cnccn3)c1C)C(=O)c1ccccc1C2=O [YM155] (first compound 1 µM, partner dose 0.0004 µM), which cell count is on record?
**A.** Its cell count is 84.9%.

**Q.** Which cell count does the source give for `CC[C@]1(O)C[C@H]2CN(CCc3c([nH]c4ccccc34)[C@@](C(=O)OC)(c3cc4c(cc3OC)N(C=O)[C@H]3[C@@](O)(C(=O)OC)[C@H](OC(C)=O)[C@]5(CC)C=CCN6CC[C@]43[C@@H]65)C2)C1` [vincristine] + NC(=O)c1ccc(N(C(N)=O)c2c(F)cccc2F)nc1-c1ccc(F)cc1F [VX702] (first compound 0.0001 µM, partner dose 0.4 µM) here?
**A.** The cell count was 110%.

**Q.** How did the cell count turn out when `CC[C@]1(O)C[C@H]2CN(CCc3c([nH]c4ccccc34)[C@@](C(=O)OC)(c3cc4c(cc3OC)N(C=O)[C@H]3[C@@](O)(C(=O)OC)[C@H](OC(C)=O)[C@]5(CC)C=CCN6CC[C@]43[C@@H]65)C2)C1` [vincristine] + CC(=O)c1c(C)c2cnc(Nc3ccc(N4CCNCC4)cn3)nc2n(C2CCCC2)c1=O [palbociclib] (first compound 0.0001 µM, partner dose 0.04 µM) was run?
**A.** Its cell count is 85%.

**Q.** For `N#CC[C@H](C1CCCC1)n1cc(-c2ncnc3[nH]ccc23)cn1` [ruxolitinib] + CCCS(=O)(=O)Nc1ccc(F)c(C(=O)c2c[nH]c3ncc(Cl)cc23)c1F [PLX4720] (first compound 1 µM, partner dose 0.08 µM), which cell count is on record?
**A.** The cell count was 88%.

**Q.** For `Cc1cc(Nc2cc(N3CCN(C)CC3)nc(Sc3ccc(NC(=O)C4CC4)cc3)n2)n[nH]1` [Tozasertib] + N#CC[C@H](C1CCCC1)n1cc(-c2ncnc3[nH]ccc23)cn1 [ruxolitinib] (first compound 0.006 µM, partner dose 1 µM), which cell count is on record?
**A.** Its cell count is 99%.

**Q.** How did the cell count turn out when `Cc1cc(Nc2cc(N3CCN(C)CC3)nc(Sc3ccc(NC(=O)C4CC4)cc3)n2)n[nH]1` [Tozasertib] + NC(=O)c1ccc(N(C(N)=O)c2c(F)cccc2F)nc1-c1ccc(F)cc1F [VX702] (first compound 0.006 µM, partner dose 0.4 µM) was run?
**A.** The cell count was 91.1%.

**Q.** With `CC[C@]1(O)C[C@H]2CN(CCc3c([nH]c4ccccc34)[C@@](C(=O)OC)(c3cc4c(cc3OC)N(C=O)[C@H]3[C@@](O)(C(=O)OC)[C@H](OC(C)=O)[C@]5(CC)C=CCN6CC[C@]43[C@@H]65)C2)C1` [vincristine] + C=C(c1ccc(C(=O)O)cc1)c1cc2c(cc1C)C(C)(C)CCC2(C)C [Bexarotene] (first compound 0.0001 µM, partner dose 2 µM) as the compound, how does the cell count read?
**A.** Its cell count is 97.3%.

**Q.** `N#CC[C@H](C1CCCC1)n1cc(-c2ncnc3[nH]ccc23)cn1` [ruxolitinib] + Clc1ccc(Nc2nnc(Cc3ccncc3)c3ccccc23)cc1 [vatalanib] (first compound 1 µM, partner dose 2 µM) was tested. Which cell count did it give?
**A.** The cell count was 90.9%.

**Q.** `N#CC[C@H](C1CCCC1)n1cc(-c2ncnc3[nH]ccc23)cn1` [ruxolitinib] + O=C(/C=C/c1cccnc1)NCCCCC1CCN(C(=O)c2ccccc2)CC1 [FK866] (first compound 1 µM, partner dose 0.01 µM) was tested. Which cell count did it give?
**A.** The cell count was 38.6%.

**Q.** `Cc1cc(Nc2cc(N3CCN(C)CC3)nc(Sc3ccc(NC(=O)C4CC4)cc3)n2)n[nH]1` [Tozasertib] + CN(NC(=O)CC(=O)NN(C)C(=S)c1ccccc1)C(=S)c1ccccc1 [STA4783] (first compound 0.006 µM, partner dose 0.006 µM) was tested. Which cell count did it give?
**A.** Its cell count is 90.7%.

**Q.** Which cell count does the source give for `N#CC[C@H](C1CCCC1)n1cc(-c2ncnc3[nH]ccc23)cn1` [ruxolitinib] + CO[C@H]1C[C@@H]2CC[C@@H](C)[C@@](O)(O2)C(=O)C(=O)N2CCCC[C@H]2C(=O)O[C@H]([C@H](C)C[C@@H]2CC[C@@H](OCCO)[C@H](OC)C2)CC(=O)[C@H](C)/C=C(\C)[C@@H](O)[C@@H](OC)C(=O)[C@H](C)C[C@H](C)/C=C/C=C/C=C/1C [everolimus] (first compound 1 µM, partner dose 0.02 µM) here?
**A.** The cell count was 65.3%.

**Q.** With `Cc1cc(Nc2cc(N3CCN(C)CC3)nc(Sc3ccc(NC(=O)C4CC4)cc3)n2)n[nH]1` [Tozasertib] + Cc1cc(Nc2cc(N3CCN(C)CC3)nc(/C=C/c3ccccc3)n2)n[nH]1 [ENMD2076] (first compound 0.006 µM, partner dose 0.04 µM) as the compound, how does the cell count read?
**A.** The cell count was 103%.
